Measured values: the RNAGym collection of RNA variant scans (doi:10.1073/pnas.2313332121)
Variants at the background level are over-represented here.

B1: TPR 5TU (parent)
chain: GGAUCUUCUCGAUCUAACAAAAAAGACAAAUCUGCCACAAAGCUUGAGAGCAUCUUCGGAUGCAGAGGCGGCAGCCUUCGGUGGCGCGAUAGCGCCAACGUUCUCAACUAUGACACGCAAAACGCGUGCUCCGUUGAAUGGAGUUUAUCAUG

Variants of: B1
Assay: polymerase ribozyme fitness, log enrichment relative to wild type (log ratio); higher = more active; in vitro selection for triplet polymerase activity
Method in brief: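 Libraries of mutants in each subunit of a heterodimeric triplet polymerase ribozyme were generated by PCR and transcribed. In triplicate, each went through one in vitro selection round: annealing with biotinylated primer, partner subunit and triplets; frozen incubation at −7 °C; gel excision of extended constructs; streptavidin-bead capture; RT-PCR. Fitness, taken from Illumina sequencing of input and output libraries, is the logarithm of a genotype's enrichment over wild-type enrichment, averaged across replicates with inverse-variance weights. The logarithm is base 2, and genotypes needed ≥10 input reads and ≥1 read per output to be kept.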

Variant	polymerase ribozyme fitness (log ratio)
A40U G83A A89U C114U G133U G136U U145A	≤ -4.2
G42A U56A A60U C76A C96A U102G U127A G141U A150G	≤ -4.2
A40G C116G A120U	-1.72
A40U U44A A47C A66G C116U	≤ -4.2
A40C G100U U102G U135A	≤ -4.2
G42A C43A C54U G84A A150G	≤ -4.2
A40G A64G G136A	≤ -4.2
G42A G74C G83C A107U G112C	≤ -4.2
G42A G50A C57A G94A	≤ -4.2
G42C A60U G92U A119U C125A	≤ -4.2
A41G G68A G84U	≤ -4.2
A41C G86U A89G G140A	≤ -4.2
G42A U53A	≤ -4.2
A40C C85U G133C A142G	-3.92
A40G C103G	≤ -4.2
A40U C93G C125A U135G	≤ -4.2
A40G C85U A107C A120U U146C	≤ -4.2
G42A C54A G80A C95U C105A C114U A121C G133C	≤ -4.2
A41G G94U C114U A150G	-3.98
A40G G124U	-2.64
G42A C57A C75A C93A U145C	≤ -4.2
A41U U45A G62C G86U	≤ -4.2
A40U G58A G94A A107U	≤ -4.2
A41G A47U U78C C79A G86C C105G	≤ -4.2

Variant	polymerase ribozyme fitness (log ratio)
G42A G88A C93G U145G C149A	≤ -4.2
A40U U55A G62U A91C C114U C116U	≤ -4.2
A40G A41G G67C A120C	≤ -4.2
A41U U56A G94C A147G A150G	≤ -4.2
A41U C93A U134A G141C	≤ -4.2
A40U C54U G71U C95A U146C G152A	≤ -4.2
A41C A52U C93U U102G C132A C149G	≤ -4.2
A41C G59C C75U G83C	-2.72
A40U G59C	0.561
A40C A49U U55A C93A C96G A98U U144C U146G	≤ -4.2
A40G U44A C87A C103U G126A A142C	≤ -4.2
A40G C57U C79G A150G	≤ -4.2
A40U U104C A107C C149U	≤ -4.2
A41G G84U	-0.79
A40U G48C C85G C99A G143A	≤ -4.2
G42A U148C	≤ -4.2
A40C G59A C76G C93G	≤ -4.2
G42C U45A A52C U77G C85A C116G	≤ -4.2
G42A A73G G94C A115G	≤ -4.2
G42C G48A C75G C96U U104A	≤ -4.2
A41U A60G G80A U148A	≤ -4.2
G42A U55A	-3.81
G42A G59A U102G	≤ -4.2
G42A G50C G92C C132U U135C U145G	≤ -4.2

Variant	polymerase ribozyme fitness (log ratio)
A40C C51U A66U G124A	≤ -4.2
A40U A97U U101C A119U A121U G133A	≤ -4.2
A40C C75G U82G C93G A138G G140C	≤ -4.2
A41C G152U	-2.69
A40U C79U G81A G94U G133A	≤ -4.2
G42A U45A C69A A115G A119G A120G	≤ -4.2
A40U C51U C93U	-1.15
G42C G62A	≤ -4.2
A41G G48U G81C C95A C96A U134G U145C	≤ -4.2
A41G A52G C87U U144G U148G	-3.95
A40C U82C G94U	-0.916
A40U A106G C131U	1.54
A40C C96U	-0.579
A41U G83U G88U A120U U139C	≤ -4.2
G42A C76A G94C C99U U127A U148A	≤ -4.2
G42C C87U A147G	≤ -4.2
A40G U53A A73U C103G	≤ -4.2
A40G A91C U146C	≤ -4.2
A40U A52G C132G	-3.47
A41C C54A A91C U104G U127A G140U U151C	≤ -4.2
G42C C96G	≤ -4.2
A40C G62U A119U	-0.408
G42C A60G C75G C105U A122G	-4.18
A40U G58A C87U G143U	≤ -4.2

Variant	polymerase ribozyme fitness (log ratio)
G42C G58U C75A U77G C79G G94A C108U C118U U130G C131U	≤ -4.2
A40C U144A	-0.312
A40U C93U U101G G128U	-4.04
A41C C54U G92A U127A	≤ -4.2
A40C G88C A107U	≤ -4.2
A40G G84C G86A G141A	≤ -4.2
G42A G68C G94U	≤ -4.2
A41U G74A G94C	≤ -4.2
A41G A52C A64G C103G	≤ -4.2
G42A A73G C87U	≤ -4.2
A40C G74U C87A A97C A138C	≤ -4.2
A40C C76U C93G G152A	≤ -4.2
A40G U56A C75A C93A G124A	≤ -4.2
A41G G86U C87U G143A	≤ -4.2
A40C U134A	-1.77
A40G A41C A52C C63A U77A U78C C85G	≤ -4.2
A41U G42A C85A G126U C129U	≤ -4.2
A41C G68U G81A C96A	≤ -4.2
A41C C75A C87A	≤ -4.2
A41U G58C A91G G94C C108U U127C	≤ -4.2
A41U A64G G81C C87A G140U A142G	≤ -4.2
G42C A49G C54G G83C C85U C96A	≤ -4.2
A41U C103G A137C U148C	≤ -4.2
A41G C85U U101C C125G G133U C149A	≤ -4.2

Variant	polymerase ribozyme fitness (log ratio)
A40G G68U C76A C93U	≤ -4.2
A41C A47C C85A C93G G94C C108U A137U C149G	≤ -4.2
A41C A137G C149U	-2.44
A41C G50C G84A	≤ -4.2
G42A G48A A73G G92A U109C G140C U148G C149G	≤ -4.2
G42C C72U	≤ -4.2
G42A G59U C76U G88U C103G G152U	≤ -4.2
A40C C75U C116U A119C	-1.75
A40C U53A G88C U139C	≤ -4.2
G42C C63A C85A C95U A121G U144C	≤ -4.2
A41U U53G G83U C93A C132G	≤ -4.2
A40C G83A A97G	-1.2
A40G A47U G50C C93G G94A C95G A122C	≤ -4.2
A41U G50C A52U C75A C85U	≤ -4.2
G42C C76G	≤ -4.2
A41U U53A G74C U82C	≤ -4.2
A41U A66C G88A A113C G143A U146C	≤ -4.2
A41U C93A U139A	≤ -4.2
A41G C54U G84C A106C U111A A115C	≤ -4.2
A40U A47G C79G C85U C114U	≤ -4.2
A40C G42A A49G G62C C93A	≤ -4.2
A40G C85G G86U G94A U130G A142C	≤ -4.2
A40C A98G C131U U134A	-2.13
A40U G58C A64U C108G	≤ -4.2

Variant	polymerase ribozyme fitness (log ratio)
A40G G58C C114U C118A U144C	≤ -4.2
A41U G42C C69U C85G G88A C114G U148G	≤ -4.2
A40U G48A G74A U90C G152U	≤ -4.2
G42A U45C A60C C116U	≤ -4.2
G42A A49C C54U C95U C118U	≤ -4.2
A40U G42A A49U G58A U61G A97U A115G A119U	≤ -4.2
A41C U53A U56G C76U G86A A138U	≤ -4.2
A40G A41C C43A G83C C87G C96A	≤ -4.2
G42A A47C U82G C96G C149G	≤ -4.2
A40C U135A	-0.385
A40C G80A G83A U145A G152A	≤ -4.2
A41C G65A A66G U111A C132G	≤ -4.2
A40U A49C G141A	≤ -4.2
G42A A60C C76G C95U G133C	≤ -4.2
G42C G48C G59U C95A G136A A138G	≤ -4.2
G42C G62C A73C G94U C118G A120U G133C	≤ -4.2
A40C A60U C72A G81C G88U G124C A147G	≤ -4.2
A40C G92A U109C G141U	≤ -4.2
A41C U44A G84A U146G	≤ -4.2
A40U G71U A106G A115G G133U G140A	≤ -4.2
A40G U77C C93A U109G C116U C131G	≤ -4.2
A40C A49U C57A C76A U82C G94U	≤ -4.2
A40C U55A G59C C69U G84A	-2.39
G42C G84U A138G U146G	≤ -4.2

Variant	polymerase ribozyme fitness (log ratio)
A40C C87U	-0.91
A40C U44A U61C	≤ -4.2
A40G A49C C85G G92U A121U	≤ -4.2
A41C C54U C57U G140U U148A	≤ -4.2
A41G A91U C93G U102A A120U C131G G133A U145G	≤ -4.2
A41U U55A C79U U82G G83U C85A C114A A120U	≤ -4.2
A40C C57A U139C	-3.43
A40U G58C A113C G124A	-2.93
A41U A49C C57U C85U C93A G141U	≤ -4.2
A40C A41U A73U G83A C95U A147C	≤ -4.2
A41U A49U U77G C93G C99A A142G	≤ -4.2
A41U C87G	≤ -4.2
A41C G81C G84U A107G U135A G141A	≤ -4.2
A39U U44A C75A U101A U127A	≤ -4.2
A40U G88U C95U A121U	≤ -4.2
A41C C54A U82G G94U	-3.5
A40G A41C G50A G128C	≤ -4.2
G42A A142C U148G	≤ -4.2
A41U G62U G71U	≤ -4.2
A41U A47U U55G C57A A60U A73G C96U G117U U146C	≤ -4.2
A41C G88A G92A A115U U151G	≤ -4.2
G42A G62C C116G C125U A142U A150C	≤ -4.2
A41G G50A C69A G81A U82C A91C	≤ -4.2
